Measurements: PubChem BioAssay AID488969 (Vanderbilt High Throughput Screening Facility, 2010)
In all, about 110,000 compounds were measured (“z-score”: median about -0.1, highest 2% from about 2 on). Some of the results follow. Calls of active or inactive are those of the source.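 How the source made its calls: active means z-score in the third read window above 3 or below -3; inactive means the rest.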

biological target: Metabotropic glutamate receptor 8 (Rattus norvegicus) (UniProt P70579); experiment: mGluR8 Gi/Go-coupled signaling modulation – cell-based, rat, thallium flux, HTS, primary screen (AID 488969); settings: HEK293 rat mGluR8, GIRK (G protein-gated inwardly rectifying potassium channel) thallium flux, FluoZin2; at 10 µM; stronger effect = higher value; submaximal glutamate (EC20) added with thallium
Chain of UniProt P70579 (P70579 whole entry, looked up): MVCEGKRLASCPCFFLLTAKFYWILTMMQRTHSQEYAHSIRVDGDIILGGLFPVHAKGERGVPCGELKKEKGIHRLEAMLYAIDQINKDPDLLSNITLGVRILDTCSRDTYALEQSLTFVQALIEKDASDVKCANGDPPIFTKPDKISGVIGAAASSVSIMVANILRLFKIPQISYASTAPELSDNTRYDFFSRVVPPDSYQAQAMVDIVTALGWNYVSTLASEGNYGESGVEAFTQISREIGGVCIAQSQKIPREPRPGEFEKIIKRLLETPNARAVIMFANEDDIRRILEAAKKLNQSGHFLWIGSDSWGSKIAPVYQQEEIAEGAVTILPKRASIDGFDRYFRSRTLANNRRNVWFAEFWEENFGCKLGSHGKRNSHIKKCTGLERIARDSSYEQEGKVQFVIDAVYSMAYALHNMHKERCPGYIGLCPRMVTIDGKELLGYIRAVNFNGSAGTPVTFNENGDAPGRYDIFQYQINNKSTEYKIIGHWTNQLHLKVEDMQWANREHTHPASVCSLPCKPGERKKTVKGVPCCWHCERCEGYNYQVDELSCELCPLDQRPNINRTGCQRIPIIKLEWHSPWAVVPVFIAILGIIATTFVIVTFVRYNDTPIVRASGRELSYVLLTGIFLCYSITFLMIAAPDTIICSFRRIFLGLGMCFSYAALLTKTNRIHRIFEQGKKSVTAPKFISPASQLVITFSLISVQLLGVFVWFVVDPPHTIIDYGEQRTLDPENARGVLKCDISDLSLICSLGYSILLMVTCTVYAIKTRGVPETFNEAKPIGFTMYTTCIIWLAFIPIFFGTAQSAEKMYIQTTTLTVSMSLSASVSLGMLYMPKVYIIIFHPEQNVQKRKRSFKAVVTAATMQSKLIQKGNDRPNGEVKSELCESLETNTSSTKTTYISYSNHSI

Row | SMILES | z-score
1 | NC(=O)c1cc2ccccc2o/c1=N\NC(=O)c1ccco1 | -0.236
2 | O=C(CCCOc1ccccc1)n1nnc2ccccc21 | -0.21
3 | O=C(O)C1CCCCC1C(=O)NCCC(c1ccccc1)c1ccccc1 (centres undefined) | -0.0345
4 | CC(/C=C1\SC(=O)N(CC(=O)Nc2ccc(O)cc2)C1=O)=C\c1ccccc1 | -0.378
5 | Cc1cccc(NC(=O)CNC(=O)COc2ccc(C(=O)c3ccc(F)cc3)cc2)c1C | -0.158
6 | Cc1cc(C)cc(N(CC(=O)N2CCc3ccccc32)S(=O)(=O)c2c(C)noc2C)c1 | 0.0867
7 | Cc1nc2ccc(N=NC3=C(O)CC(C)(C)CC3=O)cc2s1 | 0.18
8 | CCN(CC(=O)Nc1ccc(OC)c(OC)c1)S(=O)(=O)c1ccc(C)cc1 | 0.404
9 | Cc1csc(NC(=O)c2ccc(C)o2)n1 | -0.297
10 | COc1ccc(C2CC(=O)C(C=NCCCN3CCOCC3)=C(O)C2)cc1 (centres undefined) | 0.896
11 | COc1ccccc1/C=C\C=N\NC(=O)CCn1nnc2ccccc21 | -0.0445
12 | COC(=O)c1cc(CNC(=O)c2ccccc2Cl)ccc1OC | -0.349
13 | CN1C2C=C3C(C#N)=C(N)C(C#N)(C#N)[C@@H](c4cccs4)C3C1CC2 (some centres undefined) | 2.54
14 | CCOCCCNC(=O)C1c2ccccc2C(=O)N2CCc3ccccc3C12 (centres undefined) | -0.66
15 | CCOC(=O)C1=C(C)NC(SC)=NC1c1ccccc1 (centres undefined) | -0.897
16 | CCN1CC2CCCC3(C1)C(=O)NC1(CCCCC1)N=C23 (centres undefined) | -0.0467
17 | O=c1[nH]c2ccc(S(=O)(=O)N3CCCCC3)cc2[nH]c1=O | -0.0803
18 | Oc1ccc(N=C/C=C/c2cccc(Br)c2)cc1-c1nc2ccccc2s1 | -0.257
19 | NC(=O)c1ccccc1NS(=O)(=O)c1cccs1 | -0.123
20 | COc1ccc(-c2nn(-c3ccccc3)cc2C(=O)Nc2nc(CC(C)=O)ns2)cc1 | -0.926
21 | Cc1ccc(CNC(=O)/C=C/c2c(Cl)cccc2Cl)cc1 | -0.641
22 | O=C(CN1CCc2ccccc2C1)Nc1ccc(Br)cc1 | -0.0264

Row | SMILES | z-score
23 | CC(=O)c1ccc(NC(=O)Oc2ccccc2)cc1 | 0.12
24 | COc1ccc(NC(=O)c2nnn(Cc3ccc(SC)cc3)c2N)c(OC)c1 | -0.796
25 | Cc1nn(-c2ccccc2)c(N2CCCC2)c1/C=N/NC(=S)Nc1ccccc1C(F)(F)F | 0.583
26 | CC(C(=O)N1CCC(C(N)=O)CC1)N(c1ccc(Oc2ccccc2)cc1)S(C)(=O)=O (centres undefined) | -0.0832
27 | O=C(O)CC(c1ccccc1)n1cnnn1 (centres undefined) | 0.165
28 | COC(C(=O)Nc1ccc(F)c(F)c1)c1ccccc1 (centres undefined) | -0.336
29 | COc1ccc(C)cc1NC(=O)CN1CCN(S(=O)(=O)c2ccc(C(C)C)cc2)CC1 | 0.0553
30 | O=C(Nc1nncs1)C1(c2ccccc2)CCCC1 | -0.359
31 | CCCc1oc(C(=O)O)cc1CN1CCCC1 | -0.285
32 | CC(C)Nc1nc(NC(C)C)nc(C(=O)OCCO)n1 | -0.00568
33 | COc1cc(COc2ccc3c(C)c(Cc4ccccc4)c(=O)oc3c2C)cc(OC)c1OC | -0.127
34 | COc1cc(OC)cc(C(=O)N[C@H](C(=O)OCC(=O)c2ccc3c(c2)NC(=O)CO3)C(C)C)c1 | -0.114
35 | CCC(Sc1n[nH]c(=O)[nH]c1=O)C(=O)OCc1ccccc1 (centres undefined) | 0.193
36 | CC(C)C(O)P(=O)(OCc1ccccc1)c1ccc(N(C)C)cc1 (centres undefined) | 0.127
37 | Cc1nn(Cc2ccc(C(=O)Nc3ccccc3C(F)(F)F)o2)c(C)c1Br | 1.06
38 | Cc1ccc(-n2c(=O)c(C#N)cc3c(=O)n4ccccc4nc32)cc1C | -0.323
39 | FC(F)(F)c1ccc(N2CCOCC2)c(Nc2nc3ccccc3n3cnnc23)c1 | -1.75
40 | Cc1ccc(NN=C2c3ccccc3-c3ccccc32)cc1 | 0.283
41 | Cc1cc(NC(=O)CSc2ccc(-c3nc4cc(C)c(C)cc4[nH]3)cn2)no1 | -2.57
42 | Cc1nnc(SCc2cc(=O)oc3ccc4ccccc4c23)n1Cc1ccccc1 | -0.192
43 | CCOC(=O)c1cc2c(n(-c3ccccc3)c1=O)CC(C)(C)CC2=O | 0.207
44 | NC1=NC(=O)/C(=C/c2cn(CCC(=O)O)nc2-c2ccc(F)cc2)S1 | -0.412

Row | SMILES | z-score
45 | Cc1cccc(Oc2sc(C(=O)c3ccccc3)c(N)c2C#N)c1 | 0.0116
46 | COc1cc2c(cc1OC)C(c1ccccc1O)N(C1CC(=O)N(c3ccccc3)C1=O)CC2 (centres undefined) | -0.0768
47 | CCCC(C)c1nnc(NC(=O)C2CCCO2)s1 (centres undefined) | -0.319
48 | CCN1CCN(S(=O)(=O)c2cccc([N+](=O)[O-])c2)CC1 | -0.573
49 | Cc1[nH][nH]c(=O)c1N=Nc1ccccc1 | 1.02
50 | Cc1nccn1CCc1nc(N)nc(N)n1 | active: 7.57
51 | COc1ccc(/C=N\NC(=O)c2ccc(=O)[nH]n2)cc1O | 0.0149
52 | CCN(CC)S(=O)(=O)c1cccc(C(=O)NCCc2ccccc2)c1 | -0.166
53 | c1ccc(Sc2cccc3ccccc23)c(CNC2=NCCN2)c1 | 0.832
54 | COC(=O)c1ccc(C)c(NC(=O)c2ccc(Cl)c([N+](=O)[O-])c2)c1 | 1.44
55 | Cc1cc(OC(=O)c2c(Cl)cccc2Cl)nc(C)n1 | 0.102
56 | CC1(C)CC(=O)C=C(NNC(=O)C2CCCCC2)C1 | 0.121
57 | CCOc1cc(/C=C2/NC(=O)N(CC(=O)Nc3cccc(C)c3)C2=O)ccc1OC | -0.292
58 | CC1=NN(c2ccc(C)cc2)C(=O)/C1=C\c1ccc(Br)s1 | -0.327
59 | Cc1cnn(CCC(=O)NNC(=S)Nc2ccc(F)cc2)c1 | 0.0789
60 | Cc1ccc(N/N=C(/Sc2nnnn2-c2ccccc2)C(=O)c2ccccc2)cc1 | 0.5
61 | Cc1cc(C)c(S(=O)(=O)Nc2cccc(/C=C/C(=O)O)c2)c(C)c1 | -0.369
62 | CCOC(=O)CSc1cc(CSc2ccccc2)nc(-c2ccccc2)n1 | active: 4.85
63 | O=C1C2ON(c3ccccc3)C(c3ccncc3)C2C(=O)N1c1ccccc1 (centres undefined) | -0.179
64 | COc1ccc(OC)c(CN(CCN2CCOCC2)C(=O)Nc2cccc(Cl)c2)c1 | -0.649
65 | CCOC(=O)c1ccc(NC(=S)N2CCC(C(N)=O)CC2)cc1 | -0.137
66 | CC(C)NC(=O)c1cc(-c2ccco2)nn1-c1ccc(Cl)cc1 | -0.693

Row | SMILES | z-score
67 | C[n+]1c2n(c3ccccc31)N=C(c1ccc(Br)cc1)CS2 | 1.16
68 | O=C(Nc1ccccc1)N1CCN(c2ncccn2)CC1 | 0.67
69 | Cc1ccc(NC(=O)CN(C)Cc2nc3ccccc3c(=O)[nH]2)c(Br)c1 | -0.0717
70 | CC(C)C(=O)N1CCC(c2nc(-c3ccc(S(=O)(=O)N4CCCC4)cc3)no2)CC1 | -0.431
71 | Cc1ccc(C(=O)N2CCN(c3ccc([N+](=O)[O-])c(NCc4ccco4)c3)CC2)cc1 | -0.504
72 | COc1ccccc1NC(=O)NCCN1C(=O)C2C3C=CC(C3)C2C1=O (centres undefined) | 0.322
73 | Cc1cccc(NC(=S)NC(=O)c2cccs2)n1 | active: 5.04
74 | COc1ccc(S(=O)(=O)Nc2cccc(/C=C/C(=O)O)c2)cc1 | 0.898
75 | CCNc1nc(CSc2ccccc2)nc2sc(C)c(C)c12 | -0.00743
76 | CCOC(=O)N1CCC(NC(=O)c2ccc(CS(=O)(=O)c3ccc(OC)cc3)o2)CC1 | -0.141
77 | O=C(NCCc1ccccc1)c1ccco1 | -0.2
78 | C=CCn1c(SCC(=O)NCCOC)nnc1-c1cc2c(s1)CCC(CC)C2 (centres undefined) | -0.842
79 | CC(CC(=O)NC1CCSC1=O)c1ccccc1 (centres undefined) | -0.254
80 | CC(=O)C1=C(O)C(=O)N(CC(=O)O)C1c1ccccc1Cl (centres undefined) | -0.435
81 | CCn1c(-c2csc3c2CCCC3)n[nH]c1=S | -0.181
82 | O=C(NC1CCCC1)C1CCCN1C(=O)Nc1ccccc1Cl (centres undefined) | -0.484
83 | COc1cc2c(cc1OC)-c1cc(N3CCCc4ccccc43)nc(=O)n1CC2 | -1.3
84 | COc1ccc(CC(NC(C)=O)C(=O)NC2CCN(S(=O)(=O)c3cccc4ccccc34)CC2)cc1OC (centres undefined) | -0.225
85 | CCNC(=S)NNC(=O)c1csc2ccccc12 | -0.0433
86 | CSc1ccc(NC(=O)NCCCN2CCN(c3ccccc3F)CC2)cc1 | 0.559
87 | Cc1ccc(NC(=O)C(Cc2ccccc2)NC(=O)c2ccco2)cc1 (centres undefined) | 0.364
88 | CC(C)c1ccc(-c2nc3c([nH]2)c(=O)n(C)c(=O)n3C)cc1 | 0.107

Row | SMILES | z-score
89 | CC(C)(C)NC(=O)NC(=O)COC(=O)c1ccc(OC(F)F)cc1 | 1.67
90 | N#Cc1c(Nc2ccc(F)cc2)sc(C(=O)c2ccccc2)c1N | -0.225
91 | COc1ccc(S(=O)(=O)N2CCCN(CC(=O)Nc3cc(NC(C)=O)ccc3OC)CC2)cc1 | 0.121
92 | c1ccc(-c2cc3nccc(-c4ccccn4)n3n2)cc1 | -0.281
93 | COc1ccc(-c2nnn(CC(=O)N(CC(=O)NC3CCCC3)c3cccc(C)c3)n2)cc1OC | -1.72
94 | COc1cc(CNCCc2ccccc2)ccc1OCC(=O)NC(C)(C)C | 0.486
95 | Cc1cc(C)c(C)c(C(=O)COC(=O)CNC(=O)CN2C(=O)c3ccccc3C2=O)c1C | 0.0426
96 | C=CCO/N=C(/C)c1c(O)c(CC)c(-c2ccccc2)n(-c2ccccc2)c1=O | -0.266
97 | COc1ccc(CCNC(=O)Cn2cnc3ccccc3c2=O)cc1OC | -0.146
98 | CC(C)OC(=O)c1c(NS(=O)(=O)c2ccccc2)sc2c1CCCC2 | active: 12.3
99 | CCOC(=O)N1CCN(c2c(N3CCc4ccccc43)c(=O)c2=O)CC1 | -0.0585
100 | Cc1ccc(Cn2cc(SCC(=O)Nc3nccs3)c3ccccc32)cc1 | 1.02
101 | Cn1nnc2cc(C(=O)N3CCC(c4ccccc4)C3)ccc21 (centres undefined) | 0.464
102 | COc1cc(/C=C(\NC(=O)c2ccccc2)C(=O)Nc2cccc(O)c2)c([N+](=O)[O-])cc1OC | -0.13
103 | N#C/C(C(=O)N1CCOCC1)=C1/SC=C(c2ccccc2)N1c1ccccc1 | 0.399
104 | O=C(c1cc2c(s1)CCCC2)N1CCN(S(=O)(=O)c2ccccc2C(F)(F)F)CC1 | -0.466
105 | CCCNCc1cc(Br)ccc1OCC(=O)NCCc1ccccc1 | 0.565
106 | CC(C)N(C(=O)COC(=O)c1ccc(O)cc1)C(C)C | 0.325
107 | CCCCn1nnnc1SCC(=O)Nc1ccc(N(C)C)cc1 | -0.0579
108 | CC1=C(C(N)=O)C(c2cccnc2)n2nc(SCc3ccccc3Cl)nc2N1 (centres undefined) | 0.11
109 | c1ccc(OCCn2c(-c3ccco3)nc3ccccc32)cc1 | -1.09
